Here are results for 25 sequences from the supplement of paper PMC11417369.

± gives the standard deviation of the averaged measurements. The list shows a part of the results.

In the assay the test system is PfAP2-LT AP2 domain (GST-tagged). As to the kind of experiment: gcPBM binding intensity (ln(normalized median fluorescence intensity)); higher = stronger DNA binding. In short, it runs like this:
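The highest Masliner-normalised natural-log median intensity across replicate spots of either probe orientation is reported as binding intensity. GST-tagged P. falciparum DNA-binding domains expressed in E. coli were applied for 1 h to an Agilent 4 × 180k array of primer-extended double-stranded 36-bp intergenic genomic probes plus negative controls, and bound protein was detected with Alexa488 anti-GST antibody and scanned at 488 nm.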
Regarding “TGGTTATTTATCTTTATTATAAATATTTACAAATAA [CACACA_negctrl_site1773]”, the “gcPBM binding intensity (ln)” value was 8.3 ± 0.4.

In the case of “ATAAGAAGAAGAAAAACACACATATGTAGATATATA [CACACA_site7469]”, the “gcPBM binding intensity (ln)” value was determined as 9.01 ± 0.42.

In the case of “GTATATATTAAAAAAAAAAAAAAAAAATTAAAATTA [CACACA_negctrl_site572]”, the “gcPBM binding intensity (ln)” value was found to be 8.13 ± 0.49.

With GGAATATTAATAAGAGTGCATTTTGTATTCAATATG, the “gcPBM binding intensity (ln)” value is 8.66 ± 0.41.

Take “TATAAGAAAAATAACACACACATAAACATATATACA [CACACA_site2785]”: the “gcPBM binding intensity (ln)” value was 9.57 ± 0.28.

As for “TAGACTGGACATTAATGTACATAAATATATATGTAT [XGTACX_site7726]”, the “gcPBM binding intensity (ln)” value stood at 9.01 ± 0.52.

For the sequence “AAAAAAAAAATTCATTGTACATATATATATATATAT [XGTACX_site8346]”, the “gcPBM binding intensity (ln)” value came to 9.22 ± 0.55.

Take “TTATTGTACTTGCTCGCATGCAATAAAAATATATTA [TGCATGCA_site580]”: the “gcPBM binding intensity (ln)” value came out at 8.59 ± 0.26.

As to “ATAAAAATAAAAAACTGTACATACAAGATGTTACAG [XGTACX_site6690]”, the “gcPBM binding intensity (ln)” value came to 8.6 ± 0.49.

For “ATGCTTCCTTAGGAATGTACACACATATATAATATG [XGTACX_site873]”, the “gcPBM binding intensity (ln)” value turned out to be 9.09 ± 0.33.

For the sequence “AAATAATATTTTACATGTACATAATAATTATTGGAT [XGTACX_site2783]”, the “gcPBM binding intensity (ln)” value came to 8.74 ± 0.39.

Take “TAAATATTTAAATATTGTACTAGGTATAATTGAATA [XGTACX_site3604]”: the “gcPBM binding intensity (ln)” value is 8.43 ± 0.45.

Regarding ATTATTAATAATTGTGTGCACAAATATTTATATGCT, the “gcPBM binding intensity (ln)” value worked out at 9.18 ± 0.42.

“ATATCAATATAAAGTACACACTATAGTATGTATTAT [CACACA_site5286]”: the “gcPBM binding intensity (ln)” value was 9.15 ± 0.49.

Regarding “TTTATACAATTAGACACACACAAAAAGTATATATAT [CACACA_site1082]”, the “gcPBM binding intensity (ln)” value came out at 9.22 ± 0.36.

In the case of “CATTCAAAGAAAAACTGTACGTGTAGCAAACGTCAT [XGTACX_site2576]”, the “gcPBM binding intensity (ln)” value is 8.71 ± 0.45.

For the sequence “ATGGGTATATTTCCACGTACAAAAAATCCGAATTGC [XGTACX_site1490]”, the “gcPBM binding intensity (ln)” value was determined as 8.8 ± 0.41.

Consider “ATATAATTACATTGATGTACACGAAATGATTAACAT [XGTACX_site5183]”, for which the “gcPBM binding intensity (ln)” value worked out at 8.86 ± 0.38.

With “CAAATACCCGGACACACACACACAAAAAAAAAAAAA [CACACA_site4441]”, the “gcPBM binding intensity (ln)” value stood at 10 ± 0.67.

Turning to “TTCTTTTTAAATTACACACACATATATATCTGTATA [CACACA_site5863]”, the “gcPBM binding intensity (ln)” value was found to be 9.45 ± 0.41.

As to “TCATTATTAATATGTAGTACATTATATGATATGTAT [XGTACX_site8978]”, the “gcPBM binding intensity (ln)” value is 8.71 ± 0.38.

As for “ATGAACATACAATATACACACATATAGATTTATATT [CACACA_site6524]”, the “gcPBM binding intensity (ln)” value stood at 9.18 ± 0.4.

“TAAAGGATTTTCGAAGCATGCCACCTGTGACATACT [TGCATGCA_site130]”: the “gcPBM binding intensity (ln)” value is 8.74 ± 0.3.

For “TATTCAAAGAAAAACTGTACGTGTAGCCTACATCCT [XGTACX_site7707]”, the “gcPBM binding intensity (ln)” value was determined as 8.69 ± 0.46.

On to “TTTTTTGTTATTTTCCGTTTTTTTCCATTATAATTT [GTGCAC_negctrl_site461]”, for which the “gcPBM binding intensity (ln)” value came out at 8.72 ± 0.51.
